Here are results for 43 compounds from PMC4336329 (PLoS ONE, 2015).

Structures are written as SMILES. Screen size: about 310,000 compounds; about 2,200 (0.71%) showed an effect of 50% or more. The effect is printed as a negative number. The list shows a part of the results.

The target of the test is human ether-à-go-go-related gene (hERG) potassium channel (human, UniProt Q12809). As to the kind of experiment: primary screen, population patch clamp on CHO cells stably expressing hERG.
Sequence of human ether-à-go-go-related gene (hERG) potassium channel (Q12809 whole entry, looked up): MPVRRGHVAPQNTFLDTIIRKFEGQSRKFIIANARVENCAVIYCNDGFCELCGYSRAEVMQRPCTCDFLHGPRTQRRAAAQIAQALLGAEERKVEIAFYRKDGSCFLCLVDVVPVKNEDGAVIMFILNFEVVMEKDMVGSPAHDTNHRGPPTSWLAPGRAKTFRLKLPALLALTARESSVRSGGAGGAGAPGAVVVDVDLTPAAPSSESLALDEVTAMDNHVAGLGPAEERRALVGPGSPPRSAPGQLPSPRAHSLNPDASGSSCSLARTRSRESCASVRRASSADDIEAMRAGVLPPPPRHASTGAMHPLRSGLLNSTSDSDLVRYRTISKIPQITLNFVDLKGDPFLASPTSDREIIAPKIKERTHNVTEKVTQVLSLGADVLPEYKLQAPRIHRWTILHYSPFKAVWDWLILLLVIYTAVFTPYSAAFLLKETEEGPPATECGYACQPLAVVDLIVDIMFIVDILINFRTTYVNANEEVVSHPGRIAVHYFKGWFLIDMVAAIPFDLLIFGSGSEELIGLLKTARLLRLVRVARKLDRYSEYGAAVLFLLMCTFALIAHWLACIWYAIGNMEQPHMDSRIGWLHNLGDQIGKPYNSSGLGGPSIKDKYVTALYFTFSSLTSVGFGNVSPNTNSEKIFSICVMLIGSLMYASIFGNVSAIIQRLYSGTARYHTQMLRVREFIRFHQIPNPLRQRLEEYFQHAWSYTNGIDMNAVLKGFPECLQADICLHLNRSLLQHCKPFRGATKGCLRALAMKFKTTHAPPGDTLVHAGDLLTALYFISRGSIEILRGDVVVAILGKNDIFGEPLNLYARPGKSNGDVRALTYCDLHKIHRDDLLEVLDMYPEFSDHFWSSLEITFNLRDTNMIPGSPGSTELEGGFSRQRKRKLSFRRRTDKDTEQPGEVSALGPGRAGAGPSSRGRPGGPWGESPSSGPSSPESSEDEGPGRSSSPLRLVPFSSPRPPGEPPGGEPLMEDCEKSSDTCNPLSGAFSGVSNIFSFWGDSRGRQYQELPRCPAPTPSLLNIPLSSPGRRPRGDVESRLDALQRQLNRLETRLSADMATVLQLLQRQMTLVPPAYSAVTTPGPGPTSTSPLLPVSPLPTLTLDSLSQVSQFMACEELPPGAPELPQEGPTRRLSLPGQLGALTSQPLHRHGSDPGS
Turning to `CCOC(=O)N1CCN(C(=O)COc2ccc3ccccc3c2Br)CC1`, the “hERG current change (%, negative = inhibition) at 1uM” value stood at 14.8%.

For the compound `COCc1cccc(N2C(=O)CC(C3C=C(C)C4C(=O)N(c5cccc(COC)c5)C(=O)C4C3)C2=O)c1` (stereo not shown), the “hERG current change (%, negative = inhibition) at 1uM” value is 2.85%.

With `O=C(CCSc1nnc(-c2ccncc2)o1)Nc1ccc(F)cc1`, the “hERG current change (%, negative = inhibition) at 1uM” value is -4.44%.

With `COCCn1nnnc1C(c1ccc(Cl)cc1)N1CCSCC1.Cl` (stereo not shown), the “hERG current change (%, negative = inhibition) at 1uM” value is 0.657%.

For `COC(=O)c1ccccc1NC(=O)N1c2ccccc2Sc2ccccc21`, the “hERG current change (%, negative = inhibition) at 1uM” value is -0.806%.

As to `C=C1CC2C3CC[C@@]4(OCOC45COCO5)[C@@]3(C)C(O)CC2[C@@]2(C)CCC(=O)C=C12` (stereo partly shown), the “hERG current change (%, negative = inhibition) at 1uM” value is 13.6%.

In the case of `Cc1ccc(S(=O)(=O)Cc2ccccc2Cl)cc1`, the “hERG current change (%, negative = inhibition) at 1uM” value worked out at 11.8%.

Take `CC(C)N1CCC(N2CCN(Cc3cnc(-c4ccccc4)s3)CC2CCO)CC1` (stereo not shown): the “hERG current change (%, negative = inhibition) at 1uM” value came out at 5.1%.

Take `CC(C)CNC(=S)N(Cc1ccco1)Cc1cc2cc3c(cc2[nH]c1=O)OCCO3`: the “hERG current change (%, negative = inhibition) at 1uM” value was determined as 7.5%.

As for `Cc1cc(S(=O)(=O)Nc2ccc(C(=O)N3CCN(c4ccccc4O)CC3)cc2)ccc1F`, the “hERG current change (%, negative = inhibition) at 1uM” value is reported as 5.34%.

Regarding `O=C(Nc1ccccc1)N(Cc1ccccc1)Cc1ccccc1`, the “hERG current change (%, negative = inhibition) at 1uM” value was -3.85%.

Regarding `CCNc1c(NCC)c(=O)c1=O`, the “hERG current change (%, negative = inhibition) at 1uM” value worked out at 12.9%.

`Cc1nnc(SCC(=O)NC2CCCC2)n1-c1ccccc1`: the “hERG current change (%, negative = inhibition) at 1uM” value is reported as 3.46%.

Take `COc1cccc(N2CCN(C(=O)CN(c3cc(C)cc(C)c3)S(=O)(=O)c3c(C)noc3C)CC2)c1`: the “hERG current change (%, negative = inhibition) at 1uM” value was found to be 4.95%.

In the case of `O=C(/C=C/c1cccc([N+](=O)[O-])c1)OCC(=O)N1CCOCC1`, the “hERG current change (%, negative = inhibition) at 1uM” value was determined as 21.3%.

Consider `CC(OC(=O)c1nsc(Cl)c1Cl)C(=O)NCc1ccco1` (stereo not shown), for which the “hERG current change (%, negative = inhibition) at 1uM” value is 12.5%.

For `Cc1ccc(SC(C)C(=O)NCCC2=CCCCC2)cc1` (stereo not shown), the “hERG current change (%, negative = inhibition) at 1uM” value is on record as 10.1%.

`CCc1cc(/C(Cc2ccccn2)=N\O)c(O)cc1O`: the “hERG current change (%, negative = inhibition) at 1uM” value amounted to 5.24%.

With `NC(=O)c1cn(-c2ccccc2)nc1-c1cccnc1`, the “hERG current change (%, negative = inhibition) at 1uM” value came to 3.49%.

For `CC(=O)N(C)Cc1ccc(C(=O)CSc2nnc(C3CC3)n2C2CC2)cc1`, the “hERG current change (%, negative = inhibition) at 1uM” value was found to be 4.35%.

For `Cc1cc(N/N=C/c2ccc(O)cc2)c2cccc(C)c2n1`, the “hERG current change (%, negative = inhibition) at 1uM” value is -3.41%.

In the case of `O=C(CSc1nc2ccccc2o1)N1CCN(c2ccccc2)CC1`, the “hERG current change (%, negative = inhibition) at 1uM” value is listed as 16.2%.

Turning to `CCOP(=O)(c1ccccc1Cl)C1(O)CCCCC1` (stereo not shown), the “hERG current change (%, negative = inhibition) at 1uM” value is on record as -3.79%.

Consider `COc1ccc2nc(Cl)c(C3CC(c4ccco4)=NN3C(=O)CCCC(=O)O)cc2c1` (stereo not shown), for which the “hERG current change (%, negative = inhibition) at 1uM” value is given as 12.1%.

Consider `COc1cc(C(C[N+](=O)[O-])c2c(N)n(C)c(=O)n(C)c2=O)ccc1O` (stereo not shown), for which the “hERG current change (%, negative = inhibition) at 1uM” value is listed as 10.4%.

Turning to `COc1ccccc1NC(=O)c1ccc(Br)o1`, the “hERG current change (%, negative = inhibition) at 1uM” value is listed as 9.97%.

For `Cc1c(C(=O)NCCN2CCOC2=O)oc2c(F)cccc12`, the “hERG current change (%, negative = inhibition) at 1uM” value amounted to 17.7%.

With `N#CC1(NC(=O)COC(=O)/C=C/c2ccc3ccccc3n2)CCCCC1`, the “hERG current change (%, negative = inhibition) at 1uM” value is reported as 15.6%.

As for `COc1ccc(OC)c(NC(=O)CSc2nc3ccccc3c(=O)n2CC2CCCO2)c1` (stereo not shown), the “hERG current change (%, negative = inhibition) at 1uM” value is reported as 3.62%.

Turning to `CCOc1ccc(N2C(=O)c3ccccc3NC2(C)CC)cc1` (stereo not shown), the “hERG current change (%, negative = inhibition) at 1uM” value turned out to be 8.96%.

For the compound `COC(=O)c1ccccc1NC(=O)CSc1nnnn1-c1ccc(C)cc1C`, the “hERG current change (%, negative = inhibition) at 1uM” value was determined as 14.1%.

As to `O=C(COc1ccc(/C=C2/NC(=O)NC2=O)cc1)Nc1ccc(F)cc1`, the “hERG current change (%, negative = inhibition) at 1uM” value was 11.5%.

As to `CN(C)C1(CNC(=S)Nc2ccccc2C(F)(F)F)CCCCC1`, the “hERG current change (%, negative = inhibition) at 1uM” value turned out to be 8.48%.

Consider `Cc1cc(CNCc2cn(C)nc2-c2ccc(Oc3ccccc3)cc2)on1`, for which the “hERG current change (%, negative = inhibition) at 1uM” value came out at 8.99%.

Take `CCn1cc(SCC(=O)N2CCc3ccccc32)c2ccccc21`: the “hERG current change (%, negative = inhibition) at 1uM” value was 7.38%.

On to `COc1ccc(/C=C2\SC(=S)N(CC(=O)OCC(=O)Nc3cc(Cl)cc(Cl)c3)C2=O)cc1`, for which the “hERG current change (%, negative = inhibition) at 1uM” value was determined as 5.17%.

Turning to `Cc1ccccc1NS(=O)(=O)c1cc(C(=O)N2CCCC2)ccc1Cl`, the “hERG current change (%, negative = inhibition) at 1uM” value is given as -0.425%.

For the compound `Nc1nc2ccccc2n1/N=C/c1cccnc1`, the “hERG current change (%, negative = inhibition) at 1uM” value was 13.6%.

On to `O=C(CN1CCN(Cc2ccccc2)CC1)N/N=C\C=C/c1ccco1`, for which the “hERG current change (%, negative = inhibition) at 1uM” value is given as 7.28%.

On to `COc1ccc(C2=NN(CN3C(=O)C(=O)c4ccccc43)C(c3cccc([N+](=O)[O-])c3)C2)cc1` (stereo not shown), for which the “hERG current change (%, negative = inhibition) at 1uM” value worked out at 5.82%.

`CCOc1ccccc1C(=O)N1CCC(n2nnc3cc(C(F)(F)F)ccc32)CC1`: the “hERG current change (%, negative = inhibition) at 1uM” value is -14.2%.

Consider `CS(=O)(=O)c1ccc2nc(NC(=O)c3ccc(NS(=O)(=O)c4ccc(F)c(F)c4)cc3)sc2c1`, for which the “hERG current change (%, negative = inhibition) at 1uM” value stood at 11.8%.

On to `Cc1noc(C)c1-c1nc(CS(=O)(=O)c2ccc(F)cc2)no1`, for which the “hERG current change (%, negative = inhibition) at 1uM” value was 13.1%.
